Measured values: PubChem BioAssay AID1466 (National Center for Advancing Translational Sciences (NCATS), 2008)
Hit rate of the full screen: of about 200,000 compounds, about 10 (0.005%) were called active. Inconclusive results, whose numbers are uncertain, are shown with a selection of clear calls. Calls follow the shape of the dose curve; as a rule, active = well fitted inhibition curve with a large enough effect; inconclusive = small, poorly fitted or top-dose-only effect, or effect the other way, or another doubt; inactive = no such curve, though single readings can be large or run the other way. Potencies of inconclusive entries are left out as doubtful fits.

Biological target: Lysosomal alpha-glucosidase (Homo sapiens) (UniProt P10253)
Test: qHTS Assay for Inhibitors of Human alpha-Glucosidase as a Potential Chaperone Treatment of Pompe Disease;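 as to activity change, negative = inhibition: plate controls were uninhibited enzyme wells for no effect and no-enzyme background for full effect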
Conditions: purified human GAA, 4-MU-alpha-glucoside fluorescence; activity change, negative = inhibition: at 76.9 µM (top of the series) unless noted
Method in brief: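 Fluorogenic assay: 4 nM human alpha-glucosidase with 400 uM 4-methylumbelliferyl-alpha-D-pyranoside in 50 mM citrate/phosphate, 0.005% Tween-20, pH 5.0, 20 min at room temperature. Compounds tested up to 77 uM; AC50 from Hill fits.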
Potency is read from the fitted curve at half-maximal effect; tags tell the direction and shape of the fitted curve.

SMILES	activity change, negative = inhibition	Potency
Cc1cccc(C2(c3cccc(C)c3)CC2C(=O)Nc2ccc([N+](=O)[O-])cc2O)c1 (configuration not stated)	inconclusive: -16.4% [inhibitor]	–
O=c1c2ccccc2nc2c3ccccc3c(NCc3ccccn3)nn12	–	inconclusive [activator, partial curve]
O=C(Cn1cnc([N+](=O)[O-])n1)N/N=C/c1ccccc1O	inconclusive: 4.79% [activator]	–
COc1ccc(-n2nc([N+](=O)[O-])c(=NCCc3cccc(C)c3)n2O)cc1	–	inconclusive [inhibitor, single point]
COc1ccc2c(c1)nc(SCC(=O)c1cccs1)n2C	–	inconclusive [inhibitor, single point]
CC1(C)CC(=O)CC2(C1)NCC(c1ccccc1)c1c2[nH]c2ccccc12 (configuration not stated)	inconclusive: -15.5% [inhibitor]	–
CCn1c(CCC(=O)O)nc2cc(S(=O)(=O)N(C)C)ccc21	–	inconclusive [inhibitor, single point]
O=C(Nc1ccc(C(=O)Oc2ccccc2)c(O)c1)c1ccco1	–	inconclusive [inhibitor, single point]
NS(=O)(=O)c1ccc(N2CCCC2=O)c([N+](=O)[O-])c1	–	inconclusive [activator, partial curve]
CCCN1CCN(C(c2cc3cc4c(cc3[nH]c2=O)OCO4)c2nnnn2C(C)(C)C)CC1 (configuration not stated)	–	inconclusive [activator, single point]
Cc1cc2ccccc2nc1SCC(=O)NC1CCCC1	–	inconclusive [activator, single point]
Cc1cccc(C)c1NC(=O)CSc1nnnn1-c1ccc(C(=O)O)cc1	inconclusive: 23.3% [activator]	–
NC(=O)NC(=O)COC(=O)c1cccc(NS(=O)(=O)/C=C/c2ccccc2)c1	inconclusive: 2.16% [activator]	–
C[C@@H]1C[C@H]2[C@@H]3C[C@H](F)C4=CC(=O)C(Cl)=C[C@]4(C)[C@@]3(F)[C@@H](O)C[C@]2(C)[C@@]1(O)C(=O)CO	–	inconclusive [inhibitor, single point]
CCOc1ccc(N=Cc2c(C)[nH]n(-c3nc4ccccc4[nH]3)c2=O)cc1	inactive: -25.3%	–
O=C1CSC(c2cn(-c3ccccc3)nc2-c2cc3ccccc3oc2=O)N1Cc1ccco1 (configuration not stated)	–	inconclusive [activator, partial curve]
COc1cc(OC)c2nc(C)c3c(c2c1)N(c1ccc(O)cc1)CC3	–	inconclusive [inhibitor, single point]
Cn1cc(C(=O)N2CCN(C(=O)c3ccco3)CC2)c2c3ccccc3n(C)c2c1=O	–	inconclusive [activator, single point]
N#CCCN1CCN(S(=O)(=O)c2ccc(S(=O)(=O)N3CCCC3)cc2)CC1	–	inconclusive [inhibitor, full curve]
CC(=O)Nc1c(C(=O)N2CCN(c3ccccn3)CC2)cnn1-c1ccc(C)cc1	–	inconclusive [inhibitor, single point]
CN1/C(=N\O)c2cccc3cccc1c23	inactive: 2.76%	–

SMILES	activity change, negative = inhibition	Potency
CCCCOc1ccc(C(=O)NN2CCN(C)CC2)cc1	–	inconclusive [inhibitor, single point]
CCC(C)NC(=O)C1CCCN(C(=O)NC2CCCCC2)C1 (configuration not stated)	–	inconclusive [inhibitor, partial curve, poor fit]
O=C(COc1ccccc1F)Nc1cc(S(=O)(=O)N2CCOCC2)ccc1N1CCOCC1	–	inconclusive [inhibitor, single point]
O=C(O)CCCn1cc(NC(=O)c2cccc(F)c2)cn1	inactive: 0.779%	–
Cc1c(Br)cc(C(=O)O)c(C)c1C	inactive: -0.637%	–
CC1=C(C)CS(=O)N(S(=O)(=O)c2ccc(Cl)cc2)C1 (configuration not stated)	–	inconclusive [inhibitor, single point]
Nc1[nH]ncc1C(=O)Nc1cccc(C(F)(F)F)c1	–	inconclusive [inhibitor, partial curve, poor fit]
CCOC(=O)c1cc(CC)sc1NC(=O)c1ccc(N2C(=O)CCC2=O)cc1	–	inconclusive [activator, partial curve]
O=C(Nc1ccc(F)cc1F)c1cc(-c2ccco2)on1	–	inconclusive [inhibitor, single point]
O=C(NCc1ccco1)C1CCN(c2nc3ccccc3n2Cc2ccccc2F)CC1	–	inconclusive [inhibitor, single point]
O=C(CSc1nnc(-c2ccccc2)n1Cc1ccccc1)NC1CC1	–	inconclusive [inhibitor, partial curve, poor fit]
COc1ccccc1NC(=O)C1=C(C)NC(=O)NC1c1ccccc1[N+](=O)[O-] (configuration not stated)	inactive: -1.85%	–
CC(=O)Nc1ccc(OC(=O)c2cc3ccccc3oc2=O)cc1	inconclusive: -16.1% [inhibitor]	–
COc1ccc(Cn2nnnc2C(c2cccs2)N2CCCCCC2)cc1 (configuration not stated)	–	inconclusive [inhibitor, full curve, poor fit]
O=C(c1ccccc1)N1CCN(C(=O)c2ccccc2)C1c1ccccc1	inconclusive: -21.5% [inhibitor]	–
O=C(NNC(=S)Nc1cccc2ccccc12)c1cccc(Br)c1	–	inconclusive [inhibitor, single point]
Cc1cc(C)c(S(=O)(=O)/N=C2\C=CC(=O)C(Cl)=C2)c(C)c1	–	inconclusive [inhibitor, single point]
COc1ccc(/C=N/NC(=O)c2nc(Cl)c(Cl)c(N)c2Cl)cc1COc1ccccc1F	–	inconclusive [activator, partial curve]
Brc1ccc(-c2nc3ncccn3c2NC2CCCCC2)o1	inactive: -8.34%	–
O=C(CCCNc1ccccc1)N/N=C/c1cccs1	inconclusive: 17% [activator]	–
O=C(COC(=O)[C@H](Cc1ccccc1)N1C(=O)c2ccccc2C1=O)Nc1ccc2c(c1)OCO2	–	inconclusive [inhibitor, single point]
